According to the antibiotic and cytotoxicity screens of Wong et al. (2023):
Some of the results follow.

Experiments:
[1] = system: HSkMC (human skeletal muscle cells); assay: cytotoxicity call (relative viability < 0.9); conditions: 10 µM
[2] = system: HepG2; assay: cytotoxicity call (relative viability < 0.9); conditions: 10 µM
[3] = system: S. aureus RN4220; assay: growth inhibition call (relative growth <= 0.2); conditions: 50 µM

Structure (SMILES) | cytotoxicity call [1] | cytotoxicity call [2] | growth inhibition call [3]
C[C@@H]1CN([C@H](C)CO)C(=O)c2cc(NS(=O)(=O)c3cccs3)ccc2O[C@H]1CN(C)S(=O)(=O)c1cccs1 | inactive | active | inactive
COc1ccc(NC(=O)N(C)C[C@@H]2Oc3c(NC(=O)c4cnccn4)cccc3C(=O)N([C@H](C)CO)C[C@H]2C)cc1 | inactive | inactive | inactive
C[C@H]1CN([C@@H](C)CO)C(=O)c2cccc(NC(=O)Nc3ccccc3)c2O[C@H]1CN(C)Cc1ccc(C(=O)Nc2ccccc2N)cc1 | active | active | inactive
CC1=CC(=O)[N-]S(=O)(=O)O1.[K+] | inactive | inactive | inactive
CN[C@@H]1[C@H](O[C@H]2[C@H](O[C@@H]3[C@@H](O)[C@H](O)[C@@H](NC(=N)N)[C@H](O)[C@H]3NC(=N)N)O[C@@H](C)[C@]2(O)C=O)O[C@@H](CO)[C@H](O)[C@H]1O | inactive | inactive | inactive
CC(=O)C1CCC2C3CC=C4CC(OC(=O)CCC(=O)O)CCC4(C)C3CCC12C (stereo not given) | inactive | inactive | inactive
Cc1ccc(S(=O)(=O)N(C)C[C@H]2OCCCC[C@@H](C)Oc3ccc(NS(=O)(=O)c4ccc(F)cc4)cc3C(=O)N([C@H](C)CO)C[C@@H]2C)cc1 | inactive | inactive | inactive
CC(C)(C)[S@@](=O)N1Cc2cc(C(=O)N3CCCCC3)nc(-c3cccc(-c4cccc(C#N)c4)c3)c2[C@H]1CCO | inactive | inactive | inactive
C[Si](C)(C)C#CC(=O)NO | inactive | inactive | inactive
Cc1noc(C)c1NC(=O)Nc1ccc2c(c1)C(=O)N([C@H](C)CO)C[C@H](C)[C@@H](CN(C)S(=O)(=O)c1ccccc1)O2 | inactive | inactive | inactive
C[C@H](O)[C@H](O)[C@@H](O)[C@@H](O)/C=N/NC(=O)CCCCCCC(=O)NO | inactive | inactive | inactive
C[C@H](O)C#Cc1ccc2c(c1)O[C@@H](CN(C)C(=O)c1ccncc1)[C@@H](C)CN([C@H](C)CO)S2(=O)=O | inactive | inactive | inactive
C[C@H](N)C(=O)N[C@@H](C)P(=O)(O)O | inactive | inactive | inactive
CC(C)NC(=O)Nc1ccc2c(c1)C(=O)N([C@@H](C)CO)C[C@H](C)[C@@H](CN(C)S(=O)(=O)c1ccc(Cl)cc1)O2 | inactive | inactive | inactive
C[C@@H]1CN([C@@H](C)CO)C(=O)c2cc(NC(=O)Nc3ccc4c(c3)OCO4)ccc2O[C@@H](C)CCCCO[C@H]1CN(C)C(=O)Cc1ccccc1 | inactive | inactive | inactive
CO[C@H]1CN(C)C(=O)c2ccc(NC(=O)C3CC3)cc2OC[C@H](C)N(C(=O)CN2CCOCC2)C[C@H]1C | inactive | inactive | inactive
C[C@H]1CN([C@@H](C)CO)C(=O)c2cccc(NC(=O)Nc3cccc4ccccc34)c2O[C@@H]1CN(C)C(=O)Nc1cccc2ccccc12 | inactive | inactive | inactive
C[C@@H]1CCCCO[C@H](CN(C)C(=O)CCC(F)(F)F)[C@H](C)CN([C@@H](C)CO)C(=O)c2cc(NS(=O)(=O)c3ccc(Cl)cc3)ccc2O1 | inactive | inactive | inactive
Cc1noc(NS(=O)(=O)c2ccc(N)cc2)c1C | inactive | inactive | inactive
C[C@@H]1CN([C@H](C)CO)C(=O)Cc2cc(NC(=O)Cc3cn(C)c4ccccc34)ccc2O[C@@H]1CN(C)Cc1ccc(Oc2ccccc2)cc1 | inactive | active | inactive
C[C@@H]1CCCCO[C@@H](CN(C)C(=O)NC2CCCCC2)[C@H](C)CN([C@@H](C)CO)C(=O)c2cc(NS(=O)(=O)c3ccc(F)cc3)ccc2O1 | inactive | inactive | inactive
CC(C)NC(=O)N(C)C[C@H]1Oc2c(NS(=O)(=O)c3ccc(Cl)cc3)cccc2C(=O)N([C@@H](C)CO)C[C@@H]1C | inactive | inactive | inactive
COCC(=O)N1C[C@@H](C)[C@H](OC)CN(C)C(=O)c2cc(NC(=O)Nc3cccc(F)c3)ccc2OC[C@@H]1C | inactive | inactive | inactive
O=C(C[C@H]1C=C[C@H](NC(=O)c2cnccn2)[C@@H](CO)O1)NCc1ccccc1F | inactive | inactive | inactive
COc1ccc(NC(=O)N(C)C[C@H]2OCCCC[C@@H](C)Oc3ccc(NS(=O)(=O)c4ccc(C)cc4)cc3C(=O)N([C@@H](C)CO)C[C@H]2C)cc1 | inactive | inactive | inactive
COC1C(O)C(O)C(O)C(O)C1O (stereo not given) | inactive | inactive | inactive
CC(=O)OC[C@H]1O[C@@](COC(C)=O)(O[C@H]2O[C@H](COC(C)=O)[C@@H](OC(C)=O)[C@H](OC(C)=O)[C@H]2OC(C)=O)[C@@H](OC(C)=O)[C@@H]1OC(C)=O | inactive | inactive | inactive
C[C@@H]1CCCCO[C@H](CN(C)C(=O)Nc2ccc(F)cc2)[C@H](C)CN([C@@H](C)CO)C(=O)c2cc(NC(=O)Nc3ccc(C(F)(F)F)cc3)ccc2O1 | inactive | inactive | inactive

Structure (SMILES) | cytotoxicity call [1] | cytotoxicity call [2] | growth inhibition call [3]
Cc1[nH]c(=S)c(C#N)c(C)c1Cc1ccc(Cl)cc1Cl | inactive | inactive | inactive
C[C@@H]1CCCCO[C@H](CN(C)Cc2ccc3c(c2)OCO3)[C@H](C)CN([C@@H](C)CO)C(=O)c2cc(NC(=O)Nc3ccc4c(c3)OCO4)ccc2O1 | active | active | inactive
C[C@@H]1CN([C@@H](C)CO)C(=O)c2cc(C3=CCCC3)cnc2O[C@H]1CN(C)C(=O)c1ccc2c(c1)OCO2 | inactive | inactive | inactive
Cc1ccc2cc(-c3c(C)ccc(C(=O)c4c(-c5ccccc5)n(C)n(-c5ccccc5)c4=O)c3N)ccc2n1 | inactive | inactive | inactive
C[C@H](CO)N1C[C@H](C)[C@@H](CN(C)S(C)(=O)=O)Oc2ccc(NC(=O)Cc3cn(C)c4ccccc34)cc2C1=O | inactive | inactive | inactive
O=C(C[C@@H]1C=C[C@H](NC(=O)CN2CCOCC2)[C@H](CO)O1)NCc1cccc(F)c1 | inactive | inactive | inactive
COc1ccc(NC(=O)Nc2cccc3c2O[C@@H](CN(C)Cc2ccc(Oc4ccccc4)cc2)[C@H](C)CN([C@@H](C)CO)C3=O)cc1 | inactive | active | inactive
C[C@@H]1CN([C@H](C)CO)C(=O)Cc2cc(NC(=O)Cc3ccccc3)ccc2O[C@H]1CN(C)S(C)(=O)=O | inactive | inactive | inactive
C[C@@H]1CN([C@H](C)CO)C(=O)c2cccc(NC(=O)Nc3ccc4c(c3)OCO4)c2O[C@H]1CN(C)Cc1ccc(Oc2ccccc2)cc1 | active | active | inactive
CC(C(=O)O)c1ccc(N2Cc3ccccc3C2=O)cc1 (stereo not given) | inactive | inactive | inactive
NC(=S)Nc1nc2ccccc2[nH]c1=O | inactive | inactive | inactive
COc1ccc(NC(=O)N(C)C[C@@H]2OCCCC[C@@H](C)Oc3ccc(NC(=O)Nc4ccc(F)cc4)cc3C(=O)N([C@H](C)CO)C[C@@H]2C)cc1 | inactive | inactive | inactive
Cc1noc(C)c1NC(=O)N(C)C[C@H]1Oc2c(NC(=O)Nc3ccc(C(F)(F)F)cc3)cccc2C(=O)N([C@H](C)CO)C[C@H]1C | inactive | inactive | inactive
COCC(=O)N(C)C[C@@H]1Oc2cc(C#C[C@@H](C)O)ccc2S(=O)(=O)N([C@@H](C)CO)C[C@H]1C | inactive | inactive | inactive
Cl.NC(Cc1ccc(O)cc1)C(=O)O (stereo not given) | inactive | inactive | inactive
CC(C)[Si](OCC[C@H]1O[C@]2(C(=O)N(Cc3ccccc3)c3ccccc32)[C@@H](C)[C@@H]1[Si](C)(C)O)(C(C)C)C(C)C | inactive | inactive | inactive
C[C@H](CO)N1C[C@H](C)[C@H](CN(C)C(=O)Nc2ccc(F)cc2)OCCCC[C@H](C)Oc2ccc(NC(=O)Nc3cccc4ccccc34)cc2C1=O | inactive | inactive | inactive
C[C@@H]1CN([C@H](C)CO)C(=O)c2cc(C#Cc3ccc(F)cc3)cnc2O[C@@H]1CN(C)CC1CCOCC1 | inactive | inactive | inactive
C[C@@H]1CN([C@H](C)CO)C(=O)c2cc(NC(=O)Nc3cccc4ccccc34)ccc2O[C@@H](C)CCCCO[C@H]1CN(C)Cc1ccc2c(c1)OCO2 | inactive | active | inactive
C[C@@H]1CN([C@H](C)CO)C(=O)Cc2cc(NC(=O)Nc3ccc4c(c3)OCO4)ccc2O[C@@H]1CN(C)S(C)(=O)=O | inactive | inactive | inactive
C[C@@H]1CCCCO[C@@H](CN(C)C(=O)Nc2ccccc2)[C@@H](C)CN([C@@H](C)CO)C(=O)c2cc(NC(=O)CCC(F)(F)F)ccc2O1 | inactive | inactive | inactive
Cc1cc(C(=O)Nc2cccc3c2O[C@@H](CN(C)Cc2ccc(Oc4ccccc4)cc2)[C@@H](C)CN([C@H](C)CO)C3=O)n(C)n1 | inactive | inactive | inactive
C[C@H]1CN([C@@H](C)CO)S(=O)(=O)c2ccc(Br)cc2O[C@@H]1CN(C)C(=O)C1CCOCC1 | inactive | inactive | inactive
COc1ccc(S(=O)(=O)N(C)C[C@@H]2Oc3c(NS(C)(=O)=O)cccc3C(=O)N([C@@H](C)CO)C[C@@H]2C)cc1 | inactive | inactive | inactive
C[C@H](CO)N1C[C@H](C)[C@@H](CN(C)S(=O)(=O)c2cn(C)cn2)Oc2ccc(NC(=O)C3CCCCC3)cc2C1=O | inactive | inactive | inactive
C[C@]12C=CC(=O)C=C1CC[C@@H]1[C@@H]2[C@@H](O)C[C@@]2(C)[C@H]1CC[C@]2(O)C(=O)COC(=O)c1ccc(CO[N+](=O)[O-])cc1 | inactive | inactive | inactive
O=S(=O)(NCC[C@@H]1CC[C@H](NS(=O)(=O)c2cccc(Cl)c2)[C@@H](CO)O1)c1cccc(F)c1 | inactive | inactive | inactive
